Among all 44,000 compounds or so, about 340 (0.77%) were called active. Not shown: some 5% with an inconclusive outcome. Calls follow the shape of the dose curve; as a rule, active = well fitted inhibition curve with a large enough effect; inconclusive = small, poorly fitted or top-dose-only effect; inactive = flat fitted curve, though single readings scatter. This is one part of the list.
Test: Acumen qHTS Assay for Inhibitors of the mTORC1 Signaling Pathway in MEF (Tsc2-/-, p53-/-) Cells: Sytravon;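 also: plate controls were DMSO for no effect and rapamycin for full effect; nearly all actives have a fitted effect of over 50% in size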
Settings: phospho-rpS6 immunofluorescence/PI, 24 h; series mostly up to 38.3 µM; activity change, negative = inhibition: at the top concentration
Method in brief: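 Immunofluorescence of rpS6 phosphorylation in Tsc2-/-, p53-/- MEFs after 24 h compound exposure, normalized to propidium iodide signal. Activity is expressed as % positive cells, thresholded with 7.5 nM rapamycin.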

| Compound | activity change, negative = inhibition |
| --- | --- |
| CCOc1ccc(NC(=O)C2CCN(c3nnc(C)c4c(C)n(-c5ccccc5)nc34)CC2)cc1 | inactive: -15.6% |
| Cc1ccc(NC(=O)CSc2nc3c([nH]c4ccccc43)c(=O)n2-c2ccccc2)cc1Cl | inactive: -0.48% |
| Cc1cccc(N2CCN(C(=O)C3CCN(C(=O)c4cc5sccc5n4C)CC3)CC2)c1C | inactive: -1.36% |
| Cc1ccc(C2Nc3cc(C)c(C)cc3-n3c(-c4ccccc4)c4c(=O)n(C)c(=O)n(C)c4c32)o1 (stereo not drawn) | inactive: 0% |
| Cc1ccc2[nH]cc(S(=O)(=O)c3ccc(C)c(C)c3)c(=O)c2c1 | inactive: 1.25% |
| CC1Cn2c(C(=O)NCCc3ccc(Cl)cc3)cc3cccc(c32)S1 (stereo not drawn) | inactive: -1.74% |
| Cc1ccc(F)cc1NC(=O)CCc1c(C)nn(-c2ccc(N3CCOCC3)nn2)c1C | inactive: 2.1% |
| COc1ccc(NC(=O)CCS(=O)(=O)c2nc(-c3ccc4c(c3)OCO4)cc(C(F)(F)F)n2)cc1 | inactive: -4.69% |
| COc1ccc(C)cc1NC(=O)CCc1c(C)nn(-c2ccc(N3CCCCC3)nn2)c1C | inactive: -0.708% |
| Cc1ccc(/C=C/c2onc(C)c2S(=O)(=O)N2CCC(C(=O)N3CCOc4ccc(C)cc43)CC2)cc1 | inactive: -8.81% |
| Cc1c(C(=O)N2CCCC2)oc2c1-c1nn(CC(=O)NCc3ccccc3Br)cc1CC2 | inactive: -11.2% |
| CSc1ccc(C2CC(=O)Oc3c2c(=O)n(C)c2ccccc32)cc1 (stereo not drawn) | inactive: 19.2% |
| COc1ccc(-c2cc(C(=O)Oc3ccc(C)cc3)c3cc(C)ccc3n2)cc1 | inactive: -6.37% |
| Cc1cc(=O)n(C(C)C(=O)N2CCCc3ccccc32)c2c1c(C)nn2-c1ccccc1 (stereo not drawn) | inactive: -18.4% |
| CC1CCN(c2nn3c(=O)c(C(=O)NCCc4ccccc4)cnc3s2)CC1 | inactive: 10.4% |
| Cc1ccc(-c2nnc(Nc3ccc(OC(F)(F)Cl)cc3)c3ccccc23)cc1S(=O)(=O)NC(C)(C)CO | inactive: 4.21% |
| CC(=O)N1CCc2c(sc3nc(SCC(C)C)n(-c4ccc(C)c(Cl)c4)c(=O)c23)C1 | inactive: -1.64% |
| CCCCn1c(=N)c(S(=O)(=O)c2ccc(C)cc2)cc2c(=O)n3cc(C)ccc3nc21 | inactive: -24.2% |
| CCc1nn2c(=O)cc(COC(=O)c3ccc(NC(=O)CCc4ccccc4)cc3)nc2s1 | inactive: 0% |
| O=C(Nc1ccc(-c2nc3cc(NC(=O)c4ccc(F)cc4)ccc3o2)cc1)c1ccc(F)cc1 | inactive: -9.64% |
| Nc1ccc(NC(=O)c2cccc(C(=O)Nc3ccc(N)cc3Cl)c2)c(Cl)c1 | inactive: -15.1% |
| O=C(COc1ccccc1)N(Cc1cccnc1)c1nc2c(F)cccc2s1 | inactive: 0.0785% |
| Cc1nn(C(C)C(=O)Nc2ccc(C(C)C)cc2)c(=O)c2c1sc1ccccc12 (stereo not drawn) | inactive: -1.32% |
| CC(NC(=O)C1CCN(S(=O)(=O)c2ccccc2)CC1)c1ccccc1 (stereo not drawn) | inactive: -1.28% |

| Compound | activity change, negative = inhibition |
| --- | --- |
| CCc1nc(SC)ncc1C(=O)N1CCN(c2cc(Cl)ccc2C)CC1 | inactive: 0.0361% |
| COc1cc(-c2nc(SCC(=O)Nc3ccc(C)cc3)c(-c3ccc(F)cc3)[nH]2)cc(OC)c1OC | inactive: -2.14% |
| COc1ccccc1N1CCN(C(=O)c2cnn(-c3cccc(Cl)c3)c2C2CCN(C(=O)OC(C)(C)C)CC2)CC1 | inactive: 0% |
| Cc1cccc(-c2nn3c(=O)cc(CN4CCN(C(=O)c5ccccc5Br)CC4)nc3s2)c1 | inactive: -2.42% |
| C#CC(C)(CC)NC(=O)Cn1nnc(-c2ccc(OCc3ccccc3C)cc2)n1 (stereo not drawn) | inactive: -28.6% |
| COc1ccccc1CNc1nc(-c2ccco2)nn1C(=O)c1cc(OC)c(OC)c(OC)c1 | inactive: 0.712% |
| CCCn1c2ccccc2c2cnn(CC(=O)NCC3CCN(Cc4ccc(F)cc4)CC3)c(=O)c21 | inactive: -1.43% |
| Cc1ccccc1CNC(=O)C1=Cc2ccccc2OC1 | inactive: 0.225% |
| CCn1c2ccccc2c2nnc(N3CCN(c4cccc(Cl)c4)CC3)nc21 | inactive: -2.73% |
| COc1ccc(S(=O)(=O)N2CCC(N3CCN(Cc4ccccc4)C(=O)C3=O)CC2)cc1 | inactive: 4.64% |
| CCOC(=O)c1c(C)[nH]c(CCC(=O)NCc2ccc(OC)c(OC)c2)c1C | inactive: 8.25% |
| COc1ccc(CNC(=O)Cc2c(C)c3cc4c(C)coc4cc3oc2=O)cc1 | inactive: 0.679% |
| CSc1nn(CC(=O)Nc2ccccc2F)c(N)c1S(=O)(=O)c1ccccc1 | inactive: 5.35% |
| Cc1ccc(N2CCn3c2nc2c3c(=O)n(C/C=C/c3ccccc3)c(=O)n2C)cc1C | inactive: 4.34% |
| COCCCNC(=O)Cn1c(=O)n(-c2cccc(C)c2)c(=O)c2c1c1cc(C)ccc1n2C | inactive: 0.26% |
| Cc1ccc(CN2CCSc3ccc(C(=O)NCc4ccc(OC(C)C)cc4)cc32)cc1 | inactive: -5.7% |
| COc1ccc(-c2noc(CCCC(=O)Nc3cccc(Cl)c3C)n2)cc1 | inactive: 1.33% |
| COc1ccccc1-c1c(C)nn2c(-c3ccccc3)cc(-c3ccccc3)nc12 | inactive: 0.453% |
| CCOc1ccc(C2=NC(c3ccncc3)=Nc3ccc(C)cc3N2)cc1OCC | inactive: 2.69% |
| Cc1ccc(OCCn2cc(C(=O)c3cccs3)c3ccccc32)cc1 | inactive: -2.8% |
| COc1cccc(/C=C/c2onc(C)c2S(=O)(=O)N2CCC(C(=O)N3CCCCC3)CC2)c1 | inactive: -3.03% |
| COc1ccc(C2CC(=O)c3c([nH]c(C(=O)OCc4ccccc4)c3C)C2)cc1 (stereo not drawn) | inactive: -27.2% |
| COCc1cc(C)nc2sc(C(=O)Nc3ccccc3O)c(N)c12 | inactive: -8.83% |
| COc1ccccc1NC(=O)C1=C(C)Nc2c(C(=O)Nc3ccc(C)cc3)cnn2C1c1cccc(OC)c1OC (stereo not drawn) | inactive: -6.78% |

| Compound | activity change, negative = inhibition |
| --- | --- |
| Cc1ccccc1NC(=O)c1cc2c(-c3ccccc3)nn(-c3ccccc3)c2s1 | inactive: -21.2% |
| Cc1cccc(N2CCN(C(=O)Cn3nc(C)c4sc5ccccc5c4c3=O)CC2)c1C | inactive: -1.5% |
| COc1ccc(CNC(=O)Cn2c(=O)nc(-c3ccccc3)c3cc(Cl)ccc32)cc1OC | inactive: 5.71% |
| CCCSCCCNC(=O)C1CCN(C(=O)c2cnn(-c3ccccc3)c2-n2cccc2)CC1 | inactive: -0.885% |
| COc1cccc(C(=O)Nc2ccc(-n3nncc3-c3ccccc3)cc2)c1OC | inactive: 10.3% |
| CCc1ccc(NCc2cc3ccc(OC)cc3n(CC(=O)Nc3ccccc3C)c2=O)cc1 | inactive: -9.8% |
| COc1ccc(NC(=O)CSc2nc(-c3cccs3)cc(C(F)(F)F)n2)cc1Cl | inactive: -27.4% |
| CCCCN(CCCC)CCNC(=O)Cn1nc(CC)n2c(cc3sccc32)c1=O | inactive: -10% |
| CCC1=Nc2cc(C(=O)NCCc3ccc(OC)c(OC)c3)ccc2Sc2ccccc21 | inactive: 0.623% |
| CCc1ccc(C(=O)CC2(O)C(=O)N(CCc3ccccc3)c3ccc(Br)cc32)cc1 (stereo not drawn) | inactive: -7.15% |
| CCc1c(C)sc2c1CCN(Cc1cccc(OC)c1)C2c1ccccc1 (stereo not drawn) | inactive: 0.686% |
| Cc1ccc(CSC2=Nc3ccccc3C3=NC(CCC(=O)NC4CCCCC4)C(=O)N23)cc1 (stereo not drawn) | inactive: 0.0432% |
| CCc1ccccc1S(=O)(=O)Cc1ccc(C(=O)NCc2ccc(Cl)cc2)o1 | inactive: -0.415% |
| COC(=O)c1ccc(Cl)cc1NC(=O)Nc1nnc(N(C)C2CCCCC2)s1 | inactive: 2.06% |
| COc1ccc(CCC(=O)NCc2ccc3c(c2)CCN3C(=O)c2ccc(Cl)cc2)cc1 | inactive: 0.0584% |
| Cc1ccc(CNC(=O)C(NS(=O)(=O)c2cccs2)C(C)C)cc1 (stereo not drawn) | inactive: -4.28% |
| CC(=O)c1cccc(NC(=O)CSc2nc3c(c(=O)[nH]2)CCC3)c1 | inactive: 2.41% |
| CCc1ccc2oc(C(=O)Nc3ccccc3OC)cc(=O)c2c1 | inactive: -3.71% |
| COc1ccc(-n2nc3ccc(NC(=O)c4c(OC)cccc4OC)cc3n2)cc1 | inactive: 0.925% |
| O=C(Cn1c(=O)n(-c2ccc(F)cc2)c(=O)c2sc3ccccc3c21)NC1CCCC1 | inactive: 6.67% |
| CCc1nc2ccccc2n2c(-c3ccc(C)cc3)c3c(=O)n(C)c(=O)n(C)c3c12 | inactive: 8.72% |
| Cc1cccc(N2CCN(C(c3ccccc3)c3nnc(-c4ccccc4F)o3)CC2)c1C (stereo not drawn) | inactive: 4.43% |
| Cc1cc(C)cc(NC(=O)C2CCCN(S(=O)(=O)c3cccc4nsnc34)C2)c1 (stereo not drawn) | inactive: 2.43% |
| Fc1ccc(Nc2nc(SCc3ccccc3Cl)nc3ccccc23)cc1 | inactive: 3.14% |

| Compound | activity change, negative = inhibition |
| --- | --- |
| NC(=O)C1CCN(C(=O)c2ccc3c(c2)N(Cc2cccc(Cl)c2)C(=O)c2ccccc2S3=O)CC1 (stereo not drawn) | inactive: 0.919% |
| CCOC(=O)c1c(C)[nH]c(C)c1S(=O)(=O)NCC(=O)Nc1ccc(C)cc1C | inactive: 5.2% |
| COc1ccc(CSc2nc3ccncc3n2CC(=O)Nc2cc(C)cc(C)c2)cc1 | inactive: -3.81% |
| Cc1csc2nc(COC(=O)CNC(=O)c3ccc(F)cc3)cc(=O)n12 | inactive: 0.39% |
| Cc1ccc(Cl)cc1N1CCN(CCCNC(=O)Cn2ncc3c([nH]c4ccccc43)c2=O)CC1 | inactive: -3.84% |
| Cc1ccc(C)c(NC(=O)CN(C)S(=O)(=O)c2cccc3cccnc23)c1 | inactive: 0.233% |
| Cc1ccc(C(=O)Nc2ccccc2C(=O)OCc2cc(=O)n3nc(C(C)C)sc3n2)cc1 | inactive: 0% |
| CCOc1ccccc1NC(=O)C1CCC(CNS(=O)(=O)c2ccc3c(c2)CCCC(=O)N3)CC1 (stereo not drawn) | inactive: 0.724% |
| Cc1ccc(C)c(NC(=O)CSc2nc(-c3ccccc3)c(C#N)c(=O)[nH]2)c1 | inactive: 1.42% |
| CCc1cccc(C)c1Nc1c(-c2ccc(SC)cc2)nc2sccn12 | inactive: 1.29% |
| Cc1ccc(CNc2nc3ccc(Cl)cc3n3cnnc23)cc1 | inactive: -7.36% |
| COC(=O)c1ccccc1NC(=O)C1=CC(c2ccc3c(c2)OCO3)=NS(=O)(=O)N1C | inactive: -3.53% |
| COc1ccc(S(=O)(=O)c2c(Nc3c(C)cccc3C)sc(C(=O)c3ccc(F)cc3)c2N)cc1 | inactive: -21% |
| CCOc1ccc(CCNC(=O)c2cccc(Nc3nc4ccccc4nc3-n3nc(C)cc3C)c2)cc1OCC | inactive: 0.595% |
| O=C(CC1N=C2c3ccccc3N=C(SCc3ccc(F)cc3)N2C1=O)NC1CCCCC1 (stereo not drawn) | inactive: -0.382% |
| Fc1ccc(-c2noc3ncnc(Nc4ccc(F)cc4F)c23)cc1 | inactive: -3.43% |
| Cc1cccc(NC(=O)Cn2c(=O)n(Cc3ccccc3)c(=O)c3sc4ccccc4c32)c1 | inactive: -5.26% |
| CCOc1ccc(N(C(=O)c2ccc(Cl)cc2)S(=O)(=O)c2ccc3c(c2)n(C)c(=O)n3C)cc1 | inactive: 3.05% |
| O=C(CSc1ccc(-c2cccs2)nn1)Nc1ccccc1 | inactive: 1.24% |
| Cc1ccc(CN(Cc2ccco2)C(=O)c2ccc(Cl)cc2Cl)cc1 | inactive: -5.14% |
| COc1ccc(CCNC(=O)Cn2nnc(-c3ccc(Cl)cc3)n2)cc1OC | inactive: -5.33% |

Reference: PubChem BioAssay AID493208 (National Center for Advancing Translational Sciences (NCATS), 2011)
